Assay results as given in PubChem BioAssay AID1508623 (National Center for Advancing Translational Sciences (NCATS), 2021).
In all, about 48,000 compounds went through this assay and about 450 (0.94%) were called active. Inconclusive means that the source gave no clear call. Such entries were picked first, then a sample of the others. Calls follow the shape of the dose curve; as a rule, active = well fitted inhibition curve with a large enough effect; inconclusive = small, poorly fitted or top-dose-only effect; inactive = no such curve, though single readings can be large or run the other way. Where the call is inconclusive, the potency comes from a doubtful curve fit.

Assay: Primary qHTS for Identification of Small Molecule Inhibitors of Huntingtin Promoter Activity; also: nearly all actives have a fitted effect of over 50% in size
Conditions: HEK293 HTT promoter firefly luciferase reporter (activity 0% = vehicle and -100% = no light), 24 h; series mostly up to 57.5 µM
In short: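 HEK293 luciferase promoter-reporter cells (2,500/well) plated 24 h, then compounds added at up to 57.5 uM final for 24 h at 37 °C. Firefly luminescence by Dual-Glo, normalized to vehicle (0%) and zero RLU (-100%).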
Potency is read from the fitted curve at half-maximal effect; tags tell the direction and shape of the fitted curve.

Potency, inactive:
O=C(NCC(O)CO)c1c(I)c(C(=O)NCC(O)CO)c(I)c(N(CCO)C(=O)CO)c1I (stereo unspecified)
O=C(Nc1ccc2nc(SCC(=O)N3CCc4ccccc43)sc2c1)c1ccccc1F
O=C(NCC1CN(c2ccc(N3CCOCC3=O)cc2)C(=O)O1)c1ccc(Cl)s1 (stereo unspecified)
Cc1ccc(C)c(NC(=O)Cn2c(=O)n(Cc3ccccc3)c(=O)c3oc4ccccc4c32)c1
C[C@@H](N)c1ccc(C(=O)Nc2ccnc3[nH]ccc23)cc1
CNC(=O)c1cnn(-c2nc(N)c3ncn([C@@H]4O[C@H](CO)[C@@H](O)[C@H]4O)c3n2)c1
CCc1ccc2nc(N3CCN(C(=O)C4CC4)CC3)sc2c1
CC(=O)N1CCc2cc(S(=O)(=O)NC(Cc3ccccc3)C(=O)Nc3ccc(Cl)cc3)ccc21 (stereo unspecified)
CCOC(=O)c1ccc(NS(=O)(=O)c2ccc3[nH]c4c(c3c2)CCCCC4)cc1
CC(C)(C)C1CCC(CC2=C(O)c3ccccc3C(=O)C2=O)CC1 (stereo unspecified)
COCCN1Cc2cccc(C(=O)Nc3ccc(Cl)cc3Cl)c2C1=O
COc1ccc2oc(-c3ccc(C)c(NC(=O)CSc4ccc(Cl)cc4)c3)nc2c1
CC(=O)N1c2ccc(S(=O)(=O)N3CCN(c4cccc(Cl)c4)CC3)cc2CC1C (stereo unspecified)
CN(C1CCc2c(c3ccccc3n2CC(=O)O)C1)S(=O)(=O)c1ccc(F)cc1 (stereo unspecified)
O=c1cc[nH]c(=S)[nH]1

Potency, inconclusive:
COc1ccc(CNC(=O)CCc2nc(-c3ccc(C)cc3)no2)c(OC)c1 10 µM [inhibitor, partial curve]
COc1cc(C(=O)Nc2nonc2-c2ccc(C)c(C)c2)cc(OC)c1OC 20 µM [inhibitor, single point]
Cc1ccccc1Nc1c(-c2cccs2)nc2cccc(C)n12 39.8 µM [inhibitor, single point]
CC1Cc2cc(S(=O)(=O)N(Cc3ccccc3)C(C)C)ccc2N1C(=O)C1CCC1 (stereo unspecified) 31.6 µM [inhibitor, single point]
CCOC(=O)c1c(C)oc2nc(C)nc(NCc3ccccc3OC)c12 39.8 µM [inhibitor, single point]
O=C(Cn1c(=O)oc2cc(S(=O)(=O)NCc3ccccc3)ccc21)NCc1ccc(Cl)cc1 14.1 µM [inhibitor, partial curve]
CCOc1cc(CNC(=O)Cn2c(-c3cccs3)cc3cc(F)ccc32)ccc1OC 22.4 µM [inhibitor, partial curve, poor fit]
O=C(c1cccs1)N1CCCc2cc(NS(=O)(=O)c3ccc(F)cc3F)ccc21 35.5 µM [inhibitor, single point]
COc1ccc(CN(Cc2ccco2)c2cnc(S(C)(=O)=O)nc2C(=O)Nc2ccc(C)cc2C)cc1 39.8 µM [inhibitor, partial curve, poor fit]
O=C(CSc1nc2ccncc2[nH]1)Nc1ccccc1C(F)(F)F 31.6 µM [inhibitor, partial curve, poor fit]
CCC12CN3CC(CC)(CN(C1)C3c1cc(Br)ccc1OC)C2=O (stereo unspecified) 0.282 µM [inhibitor, full curve]
Cc1nc(-c2ccc(S(=O)(=O)N3CCN(c4ccc(F)cc4)CC3)cc2)co1 25.1 µM [inhibitor, single point]
CCc1ccc(N(C)S(=O)(=O)c2ccc3[nH]cc(C(=O)NCC4CCCO4)c(=O)c3c2)cc1 (stereo unspecified) 20 µM [inhibitor, single point]
CCN1C(=O)C(Cc2nc3ccccc3c(=O)n2-c2ccccc2)c2cc(Br)ccc21 (stereo unspecified) 35.5 µM [inhibitor, partial curve, poor fit]
COc1ccc(CNc2oc(-c3ccc(COc4ccc(OC)cc4)o3)nc2C#N)cc1 39.8 µM [inhibitor, single point]
Cc1cccc(NC(=O)Cn2c(=O)oc3cc(S(=O)(=O)NC4CCCC4)ccc32)c1 35.5 µM [inhibitor, partial curve]
Cc1cccc(Nc2c3c(nc4nncn24)CCC3)c1C 22.4 µM [inhibitor, single point]
COc1ccccc1N1CCN(CC(O)COc2ccc(C)cc2C(C)(C)C)CC1 (stereo unspecified) 15.8 µM [inhibitor, single point]
Cc1ccc(C)c(N2CCN(CCCNC(=O)Nc3ccc(Cl)cc3)CC2)c1 22.4 µM [inhibitor, single point]
Cc1ccc(C(=O)Nc2ccc3nc(N4CCCCC4)cc(C)c3c2)cc1F 39.8 µM [inhibitor, single point]
CC(=O)c1ccc(N2C(=O)N(Cc3cc(C)ccc3C)c3ccccc3S2(=O)=O)cc1 28.2 µM [inhibitor, single point]
O=S(=O)(Nc1ccc(Cl)cc1)c1cccc(S(=O)(=O)c2ccc(Cl)c(Cl)c2)c1 28.2 µM [inhibitor, partial curve, poor fit]
Cc1cc(Nc2ccc(F)cc2)nc(-n2nc(C)cc2C)n1 31.6 µM [inhibitor, partial curve, poor fit]
COc1ccc(NC(=O)Cc2noc3ccc(C)cc23)cc1Cl 25.1 µM [inhibitor, partial curve]
COc1ccc(N2CCN(c3cc(C)nc4nncn34)CC2)cc1 17.8 µM [inhibitor, partial curve]
Cc1ccc(CNC(=O)C(C)n2ccc3cc(S(=O)(=O)N4CCCC4)ccc32)cc1 (stereo unspecified) 25.1 µM [inhibitor, single point]
Cc1ccc(-c2cc(C(F)(F)F)c(C#N)c(SCC(=O)O)n2)cc1 20 µM [inhibitor, partial curve, poor fit]
Cc1ccccc1CNC(=O)C(=O)NCC(c1cccs1)S(=O)(=O)c1ccc(Cl)cc1 (stereo unspecified) 15.8 µM [inhibitor, partial curve, poor fit]
Cc1c(Cl)cccc1-n1ncc(C(=O)Nc2ccc(F)cc2F)c1C1CCN(C(=O)OC(C)(C)C)CC1 28.2 µM [inhibitor, single point]
CCOc1cccc(NC(=O)c2ccc(F)c(S(=O)(=O)N(CC)c3cccc(C)c3)c2)c1 39.8 µM [inhibitor, partial curve, poor fit]
Cc1ccc(CNC(=O)C2CCN(C(=O)c3cnn(-c4ccccc4)c3-n3cccc3)CC2)cc1 20 µM [inhibitor, partial curve, poor fit]
COc1ccc(C)cc1NC(=O)Cn1c(=O)oc2cc(S(=O)(=O)NCc3ccccc3)ccc21 28.2 µM [inhibitor, partial curve, poor fit]
COc1ccc2c(c1)CC(C(=O)NCCN1CCN(c3cccc(C)c3C)CC1)CO2 (stereo unspecified) 28.2 µM [inhibitor, partial curve, poor fit]
CC(C)CCNC(=O)Nc1cc(C(=O)NCc2cccc(F)c2)ccc1N1CCCC1 25.1 µM [inhibitor, partial curve]
CSc1cccc(NC(=O)C2CCN(S(=O)(=O)c3ccc4[nH]c5c(c4c3)CCCCC5)CC2)c1 20 µM [inhibitor, partial curve]
CCOC(=O)c1ccc(CN(Cc2ccc(C)cc2)S(=O)(=O)c2ccc(NC(C)=O)cc2)cc1 39.8 µM [inhibitor, single point]
Cc1ccc(NC(=O)c2oc3ccc(S(=O)(=O)N4CCC5(CC4)OCCO5)cc3c2C)c(C)c1 25.1 µM [inhibitor, partial curve, poor fit]
CCC1=C(c2ccc(C)cc2)S(=O)(=O)N=C1N1CCC(C(=O)NCc2ccccc2Cl)CC1 39.8 µM [inhibitor, single point]
Cc1ccc(C)c(N2CCN(CCCNC(=O)c3nnc(Cc4ccc(F)cc4Cl)o3)CC2)c1 35.5 µM [inhibitor, single point]
CCOc1cc2[nH]c(=O)n(CCCC(=O)N3CCN(c4cccc(Cl)c4)CC3)c(=O)c2cc1OCC 22.4 µM [inhibitor, partial curve, poor fit]
COc1ccc(OC)c(CNc2sc3c(c2C(=O)Nc2cc(OC)ccc2OC)CCCC3)c1 31.6 µM [inhibitor, single point]
CC(C)Cn1cc(C(=O)N2CCN(c3cccc(Cl)c3)CC2)c2c3ccccc3n(C)c2c1=O 35.5 µM [inhibitor, single point]
CC(=O)N1CCCc2cc(S(=O)(=O)N3CCCC(C(=O)Nc4cccc(Cl)c4C)C3)ccc21 (stereo unspecified) 15.8 µM [inhibitor, partial curve, poor fit]
CCCCc1ccc(NC(=O)c2ccc3c(c2)CCN3S(=O)(=O)c2ccccc2)cc1 14.1 µM [inhibitor, partial curve]
COc1ccc(CCC(=O)NCCc2csc(-c3ccc(Cl)cc3)n2)cc1 39.8 µM [inhibitor, single point]
Cc1ccc(NC(=O)c2nc(S(C)(=O)=O)ncc2N(Cc2ccco2)Cc2ccco2)cc1C 31.6 µM [inhibitor, partial curve, poor fit]
